The labels stand for the following.
T1: UNK ZnF1-3 (human, UniProt Q9C0B0 31-174)
T1 sequence: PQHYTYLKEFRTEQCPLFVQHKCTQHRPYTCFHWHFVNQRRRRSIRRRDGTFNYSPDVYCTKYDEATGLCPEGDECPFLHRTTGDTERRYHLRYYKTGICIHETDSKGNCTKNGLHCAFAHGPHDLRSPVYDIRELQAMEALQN

B1: chr4:76721835:76721836:+_ENSG00000138768_ENST00000264904|hu_mus|hu_hu_hu_mus_True|68_98 (ssRNA)
RNA: GGGAGUUCUACAGUCCGACGAUCGUUUGGCUGGGGUUCUGAGAUGCCUCUGGAAUAUAACUCAUGUUGCUAAUAAAAUCCUAGUUUCUCUAUGAAAUUCUCUUUGCCAAUCCUCUUCUCUAUUAGUUGCUUUAGUUUCUCUUUCAACAGAGGAUUGAGCAUCA
B2: chr2:198351390:198351391:-_ENSG00000144381_ENST00000345042|hu_hu|hu_hu_hu_mus_False|8_38 (ssRNA)
RNA: GGGAGUUCUACAGUCCGACGAUCUCAUUCCCACCCUCCACAGAAAGGCUGCUUCUGAACUCUCAUGUGGUGACACAGCGCUACAGUCCUGAUGCUCACAGAAUAGUAGAGAUGCCUCAGUGAUUUAUUAAGUUGAAAGGACACCAACAGAGGAUUGAGCAUCA
B3: chr11:58768410:58768411:+_ENSMUSG00000078851_ENSMUST00000108817|mus_mus|FALSE|FALSE (ssRNA)
RNA: GGGAGUUCUACAGUCCGACGAUCCUUCUUAUUGUCGCGGGCCGCAUUACCAGCCAAUUCCAGGAUCUCAGCAGUCAGAUAUUCUAGCACAGCCGCCAGGUACACCGGGGCACCAGCGCCGACCCGCUCCGAAUAAUUACCCUUCAACAGAGGAUUGAGCAUCA
B4: chr2:198351390:198351391:-_ENSG00000144381_ENST00000345042|hu_hu|hu_hu_hu_mus_False|8_8 (ssRNA)
RNA: B2 RNA with U103C
B5: chr18:25531195:25531196:-_ENSG00000170558_ENST00000399380|hu_mus|FALSE|FALSE (ssRNA)
RNA: GGGAGUUCUACAGUCCGACGAUCCUUUUUUUUUUUUUGUGUGUAAUUUUUUUGGUACAAAUUAUGUAAAACACUUGUGCUAAGAACUUUUACCCCUCCCCAAAACGAAACAAACAAAAAGAAAAUAAAAAAAUUUAAAAAAAACAACAGAGGAUUGAGCAUCA
B6: chr3:176767854:176767855:-_ENSG00000177565_ENST00000430069|hu_hu|motif|central (ssRNA)
RNA: GGGAGUUCUACAGUCCGACGAUCGACAUCCUUGUUGCUUGGAACAUCUUGCCCUCCUUCUCGUAUACAAUGUCUAAGUACGGACUGUGUAGAGCCACUGGUGCUGUUCUCACUAAGAUUCCAUAUUCUUGCUGUUGAGUCUCCCAACAGAGGAUUGAGCAUCA
B7: chr2:192225418:192225419:+_ENSG00000128641_ENST00000304164|hu_hu|motif|central (ssRNA)
RNA: GGGAGUUCUACAGUCCGACGAUCAUAGAACACAUGGAAGUUUCUUUCACCUCUUGGCUGUUUAACAACCCGAGAUUUCUCGGAAAGAUAGUUACUUAUUACUCCUCCUAGUGGAUCGCCUUUAAAGUCAAAUUCAAUAUCCAUCAACAGAGGAUUGAGCAUCA
B8: chr3:90056536:90056537:+_ENSMUSG00000052310_ENSMUST00000015467|mus_mus|motif|central (ssRNA)
RNA: GGGAGUUCUACAGUCCGACGAUCCAGCUUGUCUCUGAGAUGUACUGCCUGGCCUCUGACUGUAGCAGUCUGCCUCCUUCGGAUGUCCCUGACCACGUCUGUAGUAACUUCGCUAUCUCUUAUUCUUUGGGUCUGGGGCUAGCCCAACAGAGGAUUGAGCAUCA
B9: 57970547_57971517_2536_CDS_ENSG00000155980_ENST00000455537|human|control|control (ssRNA)
RNA: GGGAGUUCUACAGUCCGACGAUCCUCAUGUCGCUCGUACAGAAAUGUCAGCUCCUGCAGCUUGGUGCUCUUCUCGUGUUCUUCGCUCUUCAGCUUCUCGUAGUCAGCCUGAAGCUUCUCUAGCUCUAACUGGAGCUUCUGAUUCAACAGAGGAUUGAGCAUCA
B10: chr10:112364808:112364809:-_ENSMUSG00000074748_ENSMUST00000099276|mus_hu|FALSE|FALSE (ssRNA)
RNA: GGGAGUUCUACAGUCCGACGAUCAGGGCAAGGAAGAGGGCUCUGCUCAGCCAAAUGCUAGGCCUUGUCCUCAAGUCAGCUGAAUCAUUGUAGUCUGGACUUUUGGGAAACACGUGGUUUUGACCUUUUCUUCUUGCUGGAGUCCAACAGAGGAUUGAGCAUCA
B11: chr1:54683890:54683891:+_ENSG00000116221_ENST00000360840|hu_hu|FALSE|FALSE (ssRNA)
RNA: GGGAGUUCUACAGUCCGACGAUCGGGGUUUCAGGAUUCAGAGGGGUCCUCCGCUCACGCAGCACCAUGCAAAUAUAGAGCUAAAAACUUUCUGAAUGUCUCUGGCUUGAAACCAACUGGGCCAACAGGUUCCACAACCACUCUCAACAGAGGAUUGAGCAUCA
B12: chr13:112505112:112505113:+_ENSMUSG00000032727_ENSMUST00000109272|mus_hu|FALSE|FALSE (ssRNA)
RNA: GGGAGUUCUACAGUCCGACGAUCCAUAAAGGAUUCAGGGACGGCAAUGCCCAUUUUCAAUCUUUUUGCUGGUCUCUCUGACUCUUCACUGCACAUGUUCAUAGGGUUUAGCUCCGAGUGAUAAAAUCCAGUCUCAAAUAAAUUCAACAGAGGAUUGAGCAUCA
B13: chr16:18804634:18804635:-_ENSG00000170540_ENST00000304414|hu_mus|FALSE|FALSE (ssRNA)
RNA: GGGAGUUCUACAGUCCGACGAUCAUUUUUCUUUUCUUUUUGCUUGAGAAGUUUGUUUAUCUCCCUUUUGGCCAUUCCAAUGUACUUCAGAAUGAUCCCAUGUUGGUUUAGUCCAGGAAGCAACAGCACAAAUGUCACAAUCAGCAACAGAGGAUUGAGCAUCA
B14: chr10:32300344:32300345:-_ENSG00000170759_ENST00000302418|hu_mus|FALSE|FALSE (ssRNA)
RNA: GGGAGUUCUACAGUCCGACGAUCGAGUUUACAAGAGUGGGUAGGAAACAGCUGUACAGGGUAGGAGUAAUUUACACAUUAAAAAAUUAAAUUUCUACAAUCCCAAGGAAUAGAGGUUAGUUAGUGAAAGACUGAUUUUAUGUCCAACAGAGGAUUGAGCAUCA

Substitutions are numbered along the chain they refer to. This is one part of the list.

The target in the assay is T1, UNK ZnF1-3. The assay can be described thus: nsRBNS (natural sequence RNA bind-n-seq); RBNS binding buffer (assumed for nsRBNS): 25 mM Tris pH 7.5, 150 mM KCl, 3 mM MgCl2, 0.01% Triton X-100, 500 ug/ml BSA, 20 U/ml SUPERase-In, 4 C; UNK is unkempt and MSI1 is Musashi-1; names of the RNAs are library labels; protein concentration not given here; high values mean tight binding.
B1 showed a binding signal of 0.496 enrichment R. For B2 the value was 1.83 enrichment R; for B3, 1.09 enrichment R. For B4 the value was 1.69 enrichment R; for B5, 2.83 enrichment R; for B6, 0.589 enrichment R. The value for B7 was 0.947 enrichment R; that for B8 was 0.556 enrichment R. As to B9, the binding signal came to 0.418 enrichment R. For B10 the value was 0.695 enrichment R; for B11, 1.47 enrichment R; for B12, 0.665 enrichment R. Molecule B13 showed a binding signal of 0.805 enrichment R. The value for B14 was 2.12 enrichment R.
